Data: PubChem BioAssay (Tox21)
Where “and” joins values, the source holds several entries; their conditions need not be identical. Equal values may be shown once. This list was built around the results that the source calls inconclusive (neither active nor inactive); the mix of calls is not that of the screen. For some assays here: Potencies beside an inconclusive call are fits to weak or partial responses and may not hold up. Where a structure was tested more than once in an assay, its records may differ in their call. Calls of active or inactive are those of the source. Calls come from the whole dose curve; as a rule, active = well fitted curve in the direction sought with a large enough effect in the repeat runs; inconclusive = weak or mixed curves; inactive = no such curve, though single readings can be large; an effect the other way counts as inactive or inconclusive.

What was measured:
[1] = Caspase-3/7 induction in HepG2 cells by small molecules, qHTS cell viability counter screen (AID 1346981); note: nearly all actives have a fitted effect of over 30% in size
Procedure, shortened: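 CellTiter-Fluor fluorescence measured viability in the same wells used for Caspase-Glo 3/7. HepG2 (wild type) at 2,000 cells/well were pre-incubated 5 hr, dosed, and given reagent at 16 hr, with 1 hr further at 37C.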

[2] = biological target: Nuclear receptor subfamily 1 group I member 2 (Rattus norvegicus) (UniProt Q9R1A7); assay: Rat pregnane X receptor (rPXR) activation by small molecules, qHTS assay (AID 1346983); conditions: rPXR luciferase reporter cells, One-Glo luminescence, 24 h; max activation: stronger effect = higher value; note: nearly all actives have a fitted effect of over 20% in size
Procedure, shortened: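 Luminescent readout (One-Glo luciferase, 30 min room temperature) followed 24 hr compound treatment at 37 C of rPXR cells plated 2,000 per well and preincubated 5hr; qHTS format with compounds delivered in DMSO.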

[3] = biological target: Cytochrome P450 2D6 (Homo sapiens) (UniProt P10635); assay: Cytochrome P450 Family 2 Subfamily D Member 6 (CYP2D6) small molecule antagonists: luciferase reporter qHTS assay (AID 1671196); note: nearly all actives have a fitted effect of over 50% in size
Procedure, shortened: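 CYP2D6 activity was followed as luminescence from its luciferin product after a 1 h NADPH-driven reaction at room temperature. Enzyme-substrate mix and compound were pre-incubated for 10 min, and the signal was read 20 min after adding detection reagent.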

[4] = biological target: Cytochrome P450 2C19 (Homo sapiens) (UniProt P33261); assay: Cytochrome P450 Family 2 Subfamily C Member 19 (CYP2C19) small molecule antagonists: luciferase reporter qHTS assay (AID 1671197); note: nearly all actives have a fitted effect of over 65% in size
Procedure, shortened: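 Compounds were tested on CYP2C19 activity via proluciferin conversion to luciferin. The 37C, 1 h reaction followed NADPH addition; detection reagent stopped it.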

[5] = biological target: Cytochrome P450 2C9 (Homo sapiens) (UniProt P11712); assay: Cytochrome P450 Family 2 Subfamily C Member 9 (CYP2C9) small molecule antagonists: luciferase reporter qHTS assay (AID 1671198); note: nearly all actives have a fitted effect of over 50% in size
Procedure, shortened: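 Enzyme-substrate mix preincubated with compound 10 min at room temperature; reaction started with NADPH regeneration solution, 1 h 37C. Luminescent luciferin product read after 20 min detection reagent.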

[6] = biological target: Cytochrome P450 1A2 (Homo sapiens) (UniProt P05177); assay: Cytochrome P450 Family 1 Subfamily A Member 2 (CYP1A2) small molecule antagonists: luciferase reporter qHTS assay (AID 1671199); note: nearly all actives have a fitted effect of over 50% in size
Procedure, shortened: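 Luminescence from luciferin formed by CYP1A2 from a proluciferin substrate, read 20 min after detection reagent. Compound was pre-incubated 10 min with enzyme-substrate, and reaction started with NADPH regeneration solution for 1 h at room temperature; furafylline control.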

[7] = biological target: Cytochrome P450 3A4 (Homo sapiens) (UniProt P08684); assay: Cytochrome P450 Family 3 Subfamily A Member 4 (CYP3A4) small molecule antagonists: luciferase reporter qHTS assay (AID 1671201); note: nearly all actives have a fitted effect of over 50% in size
Procedure, shortened: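 Room-temperature assay throughout: 10 min compound–enzyme/substrate preincubation, 1 h reaction after NADPH regeneration solution, 20 min detection. Luciferin formed from proluciferin substrate is quantified by luminescence.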

[8] = biological target: Nuclear receptor subfamily 1 group I member 2 (Homo sapiens) (UniProt O75469); assay: CYP3A4 induction through human pregnane X receptor (PXR) by small molecules, qHTS assay (AID 1346984); note: nearly all actives have a fitted effect of over 40% in size
Procedure, shortened: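 Read-out is luminescence after One-Glo addition, following a 3 hr, 37C incubation with Luciferin-IPA CYP3A4 substrate (3uM final). Before that, compounds were on DPX-2 cells (HepG2 co-transfected with PXR element plus CYP3A4-promoter luciferase) for 24 hr at 37C.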

[9] = biological target: Voltage-gated inwardly rectifying potassium channel KCNH2 (Homo sapiens) (UniProt Q12809); assay: Human Ether-a-go-go-Related Gene (hERG) channel small molecule antagonists: fluorescence cell-based qHTS assay (AID 1671200); note: nearly all actives have a fitted effect of over 50% in size
Procedure, shortened: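 Cell line hERG-U2OS; dye FluxOR II, 1 h RT dark; Tl+ stimulus; ex 480/em 540 nm, read each second for 2 min.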
Potency is the fitted concentration of half-maximal effect; tags give direction and shape of the fitted curve.

Chain of UniProt P08684 (P08684 whole entry, looked up): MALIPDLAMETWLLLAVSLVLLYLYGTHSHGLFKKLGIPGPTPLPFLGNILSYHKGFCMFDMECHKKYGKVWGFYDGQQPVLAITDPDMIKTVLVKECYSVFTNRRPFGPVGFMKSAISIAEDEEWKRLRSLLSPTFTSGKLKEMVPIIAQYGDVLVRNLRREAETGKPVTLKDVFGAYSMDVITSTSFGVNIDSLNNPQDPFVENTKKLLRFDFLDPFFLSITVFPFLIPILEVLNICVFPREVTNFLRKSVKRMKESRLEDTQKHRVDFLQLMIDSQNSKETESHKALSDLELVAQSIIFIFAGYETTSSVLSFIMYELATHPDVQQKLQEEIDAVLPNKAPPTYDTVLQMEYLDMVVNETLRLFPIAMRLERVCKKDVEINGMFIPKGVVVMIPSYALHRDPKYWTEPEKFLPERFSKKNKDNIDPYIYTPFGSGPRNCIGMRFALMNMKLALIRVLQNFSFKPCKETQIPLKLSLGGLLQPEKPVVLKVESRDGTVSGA
Chain of UniProt P11712 (P11712 whole entry, looked up): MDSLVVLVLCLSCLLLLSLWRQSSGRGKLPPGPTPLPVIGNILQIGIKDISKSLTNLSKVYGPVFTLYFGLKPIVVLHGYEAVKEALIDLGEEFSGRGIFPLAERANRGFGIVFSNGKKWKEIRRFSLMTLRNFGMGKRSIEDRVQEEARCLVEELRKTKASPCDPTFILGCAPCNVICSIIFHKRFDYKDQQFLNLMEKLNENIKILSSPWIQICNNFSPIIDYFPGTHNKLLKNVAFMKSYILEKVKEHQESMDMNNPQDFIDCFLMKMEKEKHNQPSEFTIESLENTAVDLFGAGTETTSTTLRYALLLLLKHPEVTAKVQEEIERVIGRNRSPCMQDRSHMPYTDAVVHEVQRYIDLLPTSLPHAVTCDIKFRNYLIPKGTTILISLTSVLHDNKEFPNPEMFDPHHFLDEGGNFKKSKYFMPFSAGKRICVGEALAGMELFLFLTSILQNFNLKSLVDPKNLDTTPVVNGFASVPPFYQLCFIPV
Chain of UniProt P33261 (P33261 whole entry, looked up): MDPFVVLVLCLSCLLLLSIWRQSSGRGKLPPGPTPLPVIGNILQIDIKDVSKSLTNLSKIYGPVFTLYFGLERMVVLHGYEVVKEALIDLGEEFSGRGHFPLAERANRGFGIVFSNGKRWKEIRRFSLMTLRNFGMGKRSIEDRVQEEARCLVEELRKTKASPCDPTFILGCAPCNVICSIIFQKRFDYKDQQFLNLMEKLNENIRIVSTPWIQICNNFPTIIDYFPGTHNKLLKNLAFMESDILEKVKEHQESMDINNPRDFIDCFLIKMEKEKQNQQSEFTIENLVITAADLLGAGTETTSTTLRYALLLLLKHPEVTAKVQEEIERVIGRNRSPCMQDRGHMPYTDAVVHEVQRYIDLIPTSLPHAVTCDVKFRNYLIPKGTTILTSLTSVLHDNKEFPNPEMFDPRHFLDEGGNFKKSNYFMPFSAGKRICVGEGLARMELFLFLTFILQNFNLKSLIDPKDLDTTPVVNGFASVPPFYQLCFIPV
Chain of UniProt P10635 (P10635 whole entry, looked up): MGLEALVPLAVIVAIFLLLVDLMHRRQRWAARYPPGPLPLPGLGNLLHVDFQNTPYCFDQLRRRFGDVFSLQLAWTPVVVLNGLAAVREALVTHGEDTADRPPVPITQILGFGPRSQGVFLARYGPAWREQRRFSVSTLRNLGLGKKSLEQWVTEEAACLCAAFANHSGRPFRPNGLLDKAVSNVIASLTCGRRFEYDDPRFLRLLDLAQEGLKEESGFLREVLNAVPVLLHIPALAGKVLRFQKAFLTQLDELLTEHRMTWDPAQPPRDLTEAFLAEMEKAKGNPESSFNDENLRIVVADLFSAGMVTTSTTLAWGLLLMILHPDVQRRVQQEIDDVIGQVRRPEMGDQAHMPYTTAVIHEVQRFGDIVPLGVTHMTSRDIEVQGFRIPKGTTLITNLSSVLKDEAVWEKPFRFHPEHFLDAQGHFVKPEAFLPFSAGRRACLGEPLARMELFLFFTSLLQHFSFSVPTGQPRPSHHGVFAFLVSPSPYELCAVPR
Chain of UniProt P05177 (P05177 whole entry, looked up): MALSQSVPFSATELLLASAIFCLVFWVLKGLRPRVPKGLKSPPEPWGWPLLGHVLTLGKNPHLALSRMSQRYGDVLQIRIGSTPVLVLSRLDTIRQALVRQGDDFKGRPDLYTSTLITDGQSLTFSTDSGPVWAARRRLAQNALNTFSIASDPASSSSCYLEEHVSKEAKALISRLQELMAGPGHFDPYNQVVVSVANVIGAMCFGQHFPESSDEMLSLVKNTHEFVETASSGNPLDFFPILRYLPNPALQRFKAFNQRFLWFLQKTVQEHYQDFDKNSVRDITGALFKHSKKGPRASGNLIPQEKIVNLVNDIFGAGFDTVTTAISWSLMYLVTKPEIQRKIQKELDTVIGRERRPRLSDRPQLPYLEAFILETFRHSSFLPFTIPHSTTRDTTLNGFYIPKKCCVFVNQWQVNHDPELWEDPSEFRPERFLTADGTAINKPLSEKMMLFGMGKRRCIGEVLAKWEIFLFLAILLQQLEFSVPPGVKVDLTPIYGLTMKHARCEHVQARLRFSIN
Chain of UniProt Q9R1A7 (Q9R1A7 whole entry, looked up): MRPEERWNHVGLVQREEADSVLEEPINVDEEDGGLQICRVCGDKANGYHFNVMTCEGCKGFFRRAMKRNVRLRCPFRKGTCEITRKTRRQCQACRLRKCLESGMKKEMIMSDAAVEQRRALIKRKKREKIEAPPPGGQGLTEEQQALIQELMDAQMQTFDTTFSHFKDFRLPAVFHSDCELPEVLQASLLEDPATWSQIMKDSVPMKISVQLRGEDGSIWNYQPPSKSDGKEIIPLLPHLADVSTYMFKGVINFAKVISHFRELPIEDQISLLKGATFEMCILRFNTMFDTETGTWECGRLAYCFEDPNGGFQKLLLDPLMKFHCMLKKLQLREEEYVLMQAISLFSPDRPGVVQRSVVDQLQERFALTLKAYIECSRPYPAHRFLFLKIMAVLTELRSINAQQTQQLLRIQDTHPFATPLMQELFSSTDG
Chain of UniProt Q12809 (Q12809 whole entry, looked up): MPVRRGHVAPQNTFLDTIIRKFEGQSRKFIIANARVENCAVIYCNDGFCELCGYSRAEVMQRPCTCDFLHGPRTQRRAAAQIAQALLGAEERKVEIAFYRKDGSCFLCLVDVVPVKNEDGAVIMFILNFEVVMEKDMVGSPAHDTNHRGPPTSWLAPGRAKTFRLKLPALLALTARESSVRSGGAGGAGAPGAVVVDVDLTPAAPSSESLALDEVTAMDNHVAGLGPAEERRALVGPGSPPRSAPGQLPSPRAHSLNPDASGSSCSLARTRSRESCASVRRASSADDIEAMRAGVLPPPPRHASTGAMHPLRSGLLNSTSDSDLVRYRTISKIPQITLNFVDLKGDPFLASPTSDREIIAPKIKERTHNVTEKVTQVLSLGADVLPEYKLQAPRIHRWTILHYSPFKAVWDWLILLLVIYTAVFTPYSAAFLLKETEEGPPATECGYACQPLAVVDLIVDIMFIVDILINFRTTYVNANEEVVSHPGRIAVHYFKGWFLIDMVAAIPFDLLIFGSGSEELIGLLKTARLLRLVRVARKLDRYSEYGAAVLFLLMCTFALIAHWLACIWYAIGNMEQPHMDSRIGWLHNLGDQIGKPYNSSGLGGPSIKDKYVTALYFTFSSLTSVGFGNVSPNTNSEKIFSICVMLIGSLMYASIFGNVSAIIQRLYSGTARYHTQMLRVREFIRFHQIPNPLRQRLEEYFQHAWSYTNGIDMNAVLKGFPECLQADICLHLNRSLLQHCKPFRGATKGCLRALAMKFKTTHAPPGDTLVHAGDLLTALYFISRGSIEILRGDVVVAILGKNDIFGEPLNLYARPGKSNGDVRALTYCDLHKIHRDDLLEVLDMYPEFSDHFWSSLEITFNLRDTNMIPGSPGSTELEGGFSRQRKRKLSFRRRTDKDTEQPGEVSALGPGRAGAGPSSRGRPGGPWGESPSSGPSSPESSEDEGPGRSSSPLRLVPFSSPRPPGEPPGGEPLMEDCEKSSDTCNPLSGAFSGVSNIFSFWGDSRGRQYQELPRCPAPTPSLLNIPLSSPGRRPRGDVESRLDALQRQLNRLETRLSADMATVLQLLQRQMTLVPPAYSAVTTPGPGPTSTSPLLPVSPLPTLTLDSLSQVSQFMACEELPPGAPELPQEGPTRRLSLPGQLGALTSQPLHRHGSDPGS

For CCCCCCCCCCCCCCCC(=O)O, the Potency [1] was inconclusive: 27.3 µM [rising, partial curve, poor fit], the Potency [2] was inconclusive: 14.1 µM [activator, single point] and the Potency [3] was “inactive”. For the same compound, the Potency [4] was inconclusive: 4.9 µM [inhibitor, partial curve, poor fit], the Potency [5] was inconclusive: 63.9 µM [inhibitor, partial curve] and inactive and the Potency [6] was inconclusive: 63.9 µM [inhibitor, partial curve, poor fit].
In the case of C=C(C)C(=O)OCCOCCOCCOC(=O)C(=C)C, the Potency [1] is reported as “inactive” and the Potency [5] is reported as inconclusive: 56.4 µM [inhibitor, partial curve].
In the case of C=CCCCCCCCCC(=O)OCC, the Potency [1] is reported as “inactive”, the Potency [3] is reported as inconclusive: 56.4 µM [inhibitor, partial curve] and the Potency [6] is reported as inconclusive: 35.6 µM [inhibitor, partial curve].
In the case of CCOC(=O)Cn1c(=O)sc2cccc(Cl)c21, the Potency [1] is reported as “inactive”, the Potency [3] is reported as inconclusive: 35.6 µM [inhibitor, partial curve, poor fit] and the Potency [5] is reported as active: 10 µM. For the same compound, the Potency [7] was inconclusive: 63.3 µM [inhibitor, partial curve].
With CCCCCCCCCCCCc1ccccc1 the Potency [1] was inconclusive: 27.3 µM [cytotoxic, partial curve, poor fit], the Potency [3] was “inactive” and the Potency [4] was inconclusive: 89.5 µM [inhibitor, single point].
For ClC(c1ccccc1)(c1ccccc1)c1ccccc1, the Potency [1] was “inactive” and the Potency [3] was inconclusive: 35.6 µM [inhibitor, partial curve, poor fit].
For CCCCC(CC)COC(=O)CC#N (stereo not given), the Potency [1] was “inactive” and the Potency [3] was inconclusive: 71 µM [inhibitor, partial curve, poor fit].
For CCC(C)(C)C1CCC(OC)CC1 (stereo not given), the Potency [1] was inconclusive: 27.3 µM [cytotoxic, single point], the Potency [3] was inconclusive: 28.3 µM [inhibitor, partial curve] and the Potency [4] was inconclusive: 89.4 µM [inhibitor, single point].
For CC(C)c1ccccc1C(C)C, the Potency [1] was “inactive” and the Potency [3] was inconclusive: 39.9 µM [inhibitor, partial curve, poor fit].
With CCC1(c2ccccc2)C(=O)NCNC1=O the Potency [1] was inconclusive: 27.3 µM [cytotoxic, single point] and the Potency [5] was inconclusive: 18.3 µM [inhibitor, full curve, poor fit] and inconclusive: 55 µM [inhibitor, partial curve, poor fit].
In the case of COc1ccc(-c2cc(=O)c3c(O)cc(O[C@@H]4O[C@H](CO[C@@H]5O[C@@H](C)[C@H](O)[C@@H](O)[C@H]5O)[C@@H](O)[C@H](O)[C@H]4O)cc3o2)cc1O, the Potency [1] is reported as “inactive”, the Potency [8] is reported as active: 12.6 µM and the Potency [3] is reported as “inactive”. The Potency [5] was inconclusive: 15.5 µM [inhibitor, partial curve, poor fit].
For CC[C@]12CCCN3CCc4c(n(c5ccccc45)C(=O)C1)[C@@H]32, the Potency [1] was inconclusive: 29.8 µM [cytotoxic, partial curve], the Potency [2] was active: 8.91 µM and the Potency [4] was active: 4.9 µM. The Potency [5] was inconclusive: 15.5 µM [inhibitor, partial curve].
For CC(C)CO, the Potency [1] was “inactive” and the Potency [5] was “inactive”.
With Cc1ccc2c(c1)OCC(=O)CO2 the Potency [1] was inconclusive: 24.3 µM [rising, partial curve], the Potency [3] was active: 35.6 µM and the Potency [4] was inconclusive: 79.6 µM [inhibitor]. For the same compound, the Potency [5] was “inactive” and the Potency [6] was inconclusive: 63.3 µM [inhibitor, partial curve].
For CCCN(CCC)S(=O)(=O)c1ccc(C(=O)O)cc1, the Potency [1] was “inactive” and the Potency [5] was inconclusive: 90 µM [inhibitor] and inconclusive: 63.3 µM [inhibitor, partial curve, poor fit] and inactive.
For CCCCCOC(=O)CCC, the Potency [1] was inconclusive: 109 µM [cytotoxic, single point] and the Potency [4] was “inactive”.
In the case of C=CC(C)(O)CC/C=C(\C)CCC=C(C)C (stereo not given), the Potency [1] is reported as “inactive”, the Potency [3] is reported as inconclusive: 63.3 µM [inhibitor, partial curve] and the Potency [6] is reported as active: 31.7 µM. The Potency [9] was inconclusive: 49 µM [inhibitor, partial curve].
For CC(=O)Oc1cccc(C)c1, the Potency [1] was “inactive” and the Potency [5] was “inactive”.
With COC(=O)Cc1cccc2ccccc12 the Potency [1] was inconclusive: 34.4 µM [rising, partial curve, poor fit] and the Potency [3] was inconclusive: 71 µM [inhibitor, partial curve, poor fit].
For O=C(O)C(=O)O, the Potency [1] was inconclusive: 2.44 µM [rising, partial curve, poor fit] and the Potency [4] was inconclusive: 31.7 µM [inhibitor, full curve].
In the case of COc1ccccc1[N+](=O)[O-], the Potency [1] is reported as inconclusive: 27.3 µM [rising, single point], the Potency [5] is reported as “inactive” and the Potency [6] is reported as inconclusive: 28.3 µM [inhibitor, full curve] and inconclusive: 35.6 µM [inhibitor, partial curve]. The Potency [7] was “inactive”.
For COc1cc2c(cc1OC)C(=O)CC2, the Potency [1] was “inactive”, the Potency [3] was “inactive” and the Potency [6] was active: 27.5 µM.
